# Laboratory results as given in PubChem BioAssay (NCI).
#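 Five concentrations, 48 hours, 96-well plates. GI50 marks 50% less growth. TGI marks complete inhibition of growth.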
# System: NCI-H322M lung
# Test: DTP human tumour cell line panel, 48 h
smiles,measurement,value
O=C(N/N=C/c1ccco1)c1[nH]c2ccc(Br)cc2c1-c1ccccc1,GI50,1.2 µM
same,TGI,24.4 µM
